Experimental data as given in PubChem BioAssay AID463173 (ICCB-Longwood Screening Facility, Harvard Medical School, 2010).
Among all 52,000 compounds or so, about 1,700 (3.3%) were called active. No stated cut-off is given here; in the data, active means survival mostly below about 52% (no sharp cut-off); inactive means mostly above about 56%. This is one part of the list.

Each compound was assayed on Wild type (assay: S. aureus survival, RN4220 and DeltatarO strains – OD600, teichoic acid synthesis inhibitors, primary screen (AID 463173)). Settings: S. aureus RN4220 wild type/DeltatarO growth, OD600, 18 h, hits give low values, screened at 18.75 µg/mL (by protocol).

| Compound | survival |
| --- | --- |
| O=C(CN1CCN(Cc2ccc(F)cc2)C1=O)NCc1ccc(F)cc1 | inactive: 98% |
| Cc1ccc2scc(N3CCCCC3C)c(=O)c2c1 (stereo not given) | inactive: 74% |
| Cc1ccccc1CNC(=O)CN1C(=O)CCCc2ccccc21 | inactive: 83% |
| Cc1ccc(C2CC(=O)N(Cc3ccc(F)cc3)c3c2c(C)nn3-c2nc(C)cc(C)n2)cc1 (stereo not given) | inactive: 84% |
| COc1ccc(CCNC(=O)CCCn2c(=O)c3ccccc3n(CC(=O)Nc3ccccc3C)c2=O)cc1OC | inactive: 87% |
| Cc1ccc(NC2(c3ccccc3)C(=O)c3ccccc3C2=O)cc1F | inactive: 52% |
| C=CCNC(=O)CN1CCC(n2c(C)nc3cc(C(F)(F)F)ccc32)CC1 | inactive: 109% |
| CC1CCN(S(=O)(=O)c2ccc3c(c2)N(CC(=O)NCCCOC(C)C)C(=O)CO3)CC1 | inactive: 123% |
| O=C(COc1ccccc1)N(Cc1cccnc1)c1nc2c(F)cc(F)cc2s1 | inactive: 72% |
| Cc1ccsc1CN(C(=O)COc1ccccc1Cl)C1CCS(=O)(=O)C1 (stereo not given) | inactive: 82% |
| COCCNC(=O)Cn1c(-c2cccs2)cc2cc(Cl)ccc21 | inactive: 115% |
| CCc1ccccc1NC(=O)CN(c1ccccc1OC)S(=O)(=O)c1ccc(C)cc1 | inactive: 62% |
| CCC(C)NC(=O)CCCn1c(=O)c2cccn2c2ccccc21 (stereo not given) | inactive: 107% |
| CCOC(=O)CSc1nc2sc3c(c2c(=O)n1Cc1ccccc1)CC(C(C)C)OC3 (stereo not given) | inactive: 70% |
| CCC(C(=O)NC1CCCCC1)n1c(SCc2ccccc2F)nc2ccncc21 (stereo not given) | inactive: 73% |
| COCCNC(=O)CN1C(=O)COc2ccc(S(=O)(=O)N3CCCCCC3)cc21 | inactive: 78% |
| COc1ccc(C2C(=O)N(C3CCCCCC3)CC(=O)N2CCc2ccc(Cl)cc2)cc1OC (stereo not given) | inactive: 72% |
| CCc1ccc(NC(=O)CSc2ccc(-c3sc(-c4ccccc4)nc3C)nn2)cc1 | inactive: 64% |
| Cc1ccccc1C(=O)Nc1cccc(NC(=O)c2ccc(C(C)(C)C)cc2)c1 | inactive: 140% |
| Cc1nn(C(C)C(=O)NCCc2ccccc2)c(=O)c2c1sc1ccccc12 (stereo not given) | inactive: 98% |
| CCN(Cc1ccccc1)c1nc2c(S(=O)(=O)c3ccccc3)nnn2c2ccc(Cl)cc12 | inactive: 88% |
| CCc1ccc(C(c2ccccc2)c2c(C)[nH]c3ccccc23)s1 (stereo not given) | inactive: 36% |
| Cc1cc(C)c(NC(=O)CSc2nc3ccccc3c3nc(-c4ccccc4)nn23)c(C)c1 | inactive: 84% |

| Compound | survival |
| --- | --- |
| Cc1cccc(CNC(=O)c2ccc3c(c2)N(C)CCS3)c1 | inactive: 86% |
| CCOc1ccc(C2C(=O)N(C3CCCCC3)CC(=O)N2Cc2ccc(F)cc2)cc1OC (stereo not given) | inactive: 55% |
| CCCC(C)NS(=O)(=O)c1ccccc1 (stereo not given) | inactive: 119% |
| COc1ccc(NC(=O)Cn2c(=O)n(CCCC(=O)NCc3ccccc3Cl)c(=O)c3ccccc32)c(OC)c1 | inactive: 140% |
| Cc1ccccc1CNC(=O)Cn1nc(C)c2nn(-c3ccc(Cl)cc3)c(C)c2c1=O | inactive: 32% |
| CCOC(=O)c1sc2ccccc2c1S(=O)(=O)Nc1cc(OC)ccc1OC | inactive: 83% |
| COc1ccc(N2CCN(c3ncccc3-c3nc(-c4ccccc4C)no3)CC2)cc1 | inactive: 87% |
| COc1ccc(CNCc2c(C(=O)O)c(C)n(Cc3ccccc3C)c2C)cc1OC | inactive: 90% |
| Cc1ccc(C)c(N2CCN(S(=O)(=O)c3ccc4[nH]c5c(c4c3)CCCC5)CC2)c1 | active: -4% |
| N#Cc1nc(-c2ccc(COc3ccc(Cl)cc3)o2)oc1N1CCCCC1 | inactive: 79% |
| CCOC(=O)c1scc(-c2ccccc2)c1S(=O)(=O)Nc1ccccc1OC | inactive: 69% |
| COc1ccccc1N1CCN(c2nc3c(S(=O)(=O)c4ccccc4)nnn3c3ccc(Cl)cc23)CC1 | inactive: 86% |
| COc1ccc(CNS(=O)(=O)c2ccc(C(=O)N(C)C)s2)cc1 | inactive: 87% |
| COc1ccc(Cn2c(SCc3ccc(C(=O)NC4CCCCC4)cc3)nc3ccncc32)cc1 | inactive: 81% |
| CCc1cccc(C)c1Nc1c(-c2ccc(F)cc2)nc2sccn12 | inactive: 52% |
| Fc1ccc(N2CCN(Cc3nnc(-c4ccccc4Cl)o3)CC2)cc1 | inactive: 82% |
| O=C1c2[nH]nc(-c3ccccc3O)c2C(c2cccc(OCc3ccccc3)c2)N1CCCO (stereo not given) | inactive: 70% |
| CCOc1ccc(NC(=O)CSc2ncc(S(=O)(=O)c3ccc(F)c(C)c3)c(=O)[nH]2)cc1 | inactive: 82% |
| Cc1ccc2c(=O)c(C(=O)c3ccccc3)cn(CC(=O)NCc3ccccc3)c2n1 | inactive: 68% |
| CCS(=O)(=O)Nc1ccc2[nH]c(=O)[nH]c2c1 | inactive: 96% |
| O=C(CSc1nnc(COc2cccc3cccnc23)o1)N1c2ccccc2CCc2ccccc21 | inactive: 109% |
| O=C(O)CC(NS(=O)(=O)c1cccc2nsnc12)C(=O)O (stereo not given) | inactive: 117% |
| Cc1ccc(CNc2nc(-c3ccco3)nn2C(=O)c2ccccc2[N+](=O)[O-])cc1 | inactive: 107% |

| Compound | survival |
| --- | --- |
| C/C(O)=C\c1sc2ccccc2[n+]1C | inactive: 105% |
| COc1ccc(N2CC(C(=O)NCCS(=O)(=O)N3CCN(c4ccccc4)CC3)CC2=O)cc1 (stereo not given) | inactive: 70% |
| CC(C)OCCCNC(=O)c1cn(C)c2ccc(S(=O)(=O)N(C)C3CCCCC3)cc2c1=O | inactive: 93% |
| COc1ccc(S(=O)(=O)N2CCC(Oc3cccc(C(F)(F)F)c3)CC2)cc1OC | inactive: 84% |
| CN(CC(=O)Nc1ccc(OC(F)(F)F)cc1)S(=O)(=O)c1ccc2c(c1)CCC(=O)N2 | inactive: 131% |
| CCc1cccc(NC(=O)c2cnc(N3CCOCC3)c3ccccc23)c1 | inactive: 73% |
| CC(C)(C)NC(=O)c1cccc(NC(=O)c2ccco2)c1 | inactive: 100% |
| Cc1c(C(=O)N2CCCC2)oc2c1-c1nn(CC(=O)NCc3ccc(OC(C)C)cc3)cc1CC2 | inactive: 88% |
| Cc1ccc(-n2c(=O)c3c(C)c(C(=O)N(C)C)sc3n(CC(=O)N(C)c3ccccc3)c2=O)cc1C | inactive: 69% |
| Cc1ccc(C)c(NC(=O)CSc2nc3nccnc3c(=O)n2CCc2c[nH]c3ccccc23)c1 | inactive: 67% |
| Cc1ccc(CSc2nc(N)cc(N)n2)cc1 | inactive: 106% |
| Cc1ccc2occ(-c3cc(-c4ccccc4)nc4c3COc3ccccc3-4)c(=O)c2c1 | inactive: 71% |
| O=C(Nc1ccc(-c2nc3cc(Cl)ccc3o2)cc1)c1cc(Br)ccc1Cl | inactive: 134% |
| CCc1cccc(C)c1NC(=O)CN1CCN(Cc2ccccc2Cl)S1(=O)=O | inactive: 134% |
| CCc1ccc(NC(=O)Cn2c(=O)c3cccn3c3ccccc32)cc1 | inactive: 93% |
| CCC1(C)N=c2c(c(=O)n(C)c(=O)n2C)=NO1 (stereo not given) | inactive: 101% |
| COc1ccc(-c2csc3nc(-c4ccc(Cl)cc4)oc(=O)c23)cc1 | inactive: 80% |
| Cc1cccc(NC(=O)CCn2cnnn2)c1 | inactive: 78% |
| CCN(C(=O)CSc1nc2ccccc2c2nc(CCn3c(C)nc4ccccc43)nn12)c1cccc(C)c1 | inactive: 99% |
| CCN(CC)S(=O)(=O)c1ccc2c(c1)N(CC(=O)N1CCN(c3cccc(C)c3)C(C)C1)C(=O)CO2 (stereo not given) | inactive: 77% |
| COc1cc(C(=O)Nc2ccc3nc4n(c(=O)c3c2)CCCCC4)cc(OC)c1OC | inactive: 82% |
| Cc1ccc(Nc2c(-c3ccc(N4CCOCC4)cc3)nc3ccc(C)cn23)cc1 | inactive: 85% |
| CC(=O)c1ccc(N2CCN(C(=O)Nc3ccc(C)cc3)CC2)cc1 | inactive: 135% |

| Compound | survival |
| --- | --- |
| Cn1c(=O)oc2cc(S(=O)(=O)NC(CC(=O)O)c3cccc(Br)c3)ccc21 (stereo not given) | inactive: 80% |
| COc1ccc(NC(=O)CSc2nnc(N)s2)cc1 | inactive: 73% |
| Cc1cc(Nc2ccccc2C)c2cccc(C)c2n1 | inactive: 100% |
| O=C(NCc1c(-n2cccc2)sc2c1CCCC2)Nc1cccc(C(F)(F)F)c1 | inactive: 77% |
| Cn1c(Cc2ccccc2)nnc1SCC#N | inactive: 103% |
| CCC(C)n1c(SCC(=O)Nc2ccccc2C(=O)OC)nc2ccsc2c1=O (stereo not given) | active: -1% |
| CCOc1ccc(C(=O)N2CC(=O)Nc3ccc(C)cc3C2c2ccc(F)cc2)cc1OCC (stereo not given) | inactive: 88% |
| CCc1ccc(NC(=O)C2CCCN(S(=O)(=O)c3ccc4c(c3)oc(=O)n4C)C2)cc1 (stereo not given) | inactive: 85% |
| COc1cccc(C=Nc2ccc3c(c2)ncn3C)c1OC | inactive: 102% |
| COCCCNC(=O)CCCn1c(SCC(=O)c2ccc(Br)cc2)nc2c(sc3ccccc32)c1=O | inactive: 86% |
| Cc1ccc(C(=O)NCC(c2ccc(Cl)cc2)N2CCCCC2)cc1 (stereo not given) | inactive: 84% |
| Cc1ccc(CNc2ccc(N3CCOCC3)cc2)cc1 | inactive: 104% |
| Cc1ccc(Cl)c2sc(NC(=O)c3ccc(S(=O)(=O)N4CCCC4)cc3)nc12 | inactive: 45% |
| COc1cccc(CNC(=O)c2cccc(N3CCCS3(=O)=O)c2)c1 | inactive: 85% |
| COC(=O)c1ccc(NC(=O)c2cnn(-c3ccc(Cl)cc3)c2C2CCN(C(=O)OC(C)(C)C)CC2)cc1 | inactive: 117% |
| CCc1nn(CC(=O)NCCc2ccc(Cl)cc2)c(=O)c2cc3c(OC)cccc3n12 | inactive: 89% |
| COc1ccccc1C(=O)Nc1cccc(OCc2cc(=O)n3ccccc3n2)c1 | inactive: 87% |
| Cc1ccc(C)c(NC(=O)CSc2nc3ccccc3nc2N2CCOCC2)c1 | inactive: 76% |
| CCSc1ccccc1C(=O)N1CCN(c2nc3ccccc3s2)CC1 | inactive: 101% |
| CC(C)(C)OC(=O)N1CCC(c2c(C(=O)N3CCCCC3)cnn2-c2ccc(F)cc2)CC1 | inactive: 78% |
| COc1cccc(NC(=O)c2oc3ccc(S(=O)(=O)N(C)C4CCCCC4)cc3c2C)c1 | inactive: 138% |
